Reference: patent CN117999282A (GAMMADELTA THERAPEUTICS LTD, dated 2024)

Molecular target: T1, recombinant human TIGIT (human, UniProt Q495A1 22-141)
T1 construct: also called 重组TIGIT; 人TIGIT
T1 sequence (looked up): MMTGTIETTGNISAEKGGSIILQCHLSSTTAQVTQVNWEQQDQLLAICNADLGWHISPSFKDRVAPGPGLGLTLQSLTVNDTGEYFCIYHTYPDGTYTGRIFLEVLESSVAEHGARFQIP
Test: SPR, TIGIT fixed on carboxymethyl dextran chip, bispecific 100nM, then Vδ1 heterodimer 100nM

binding result: binds
B1: 抗Vδ1×TIGIT双特异性抗体 (ADT1-4-2×替瑞利尤单抗) (bispecific antibody, human IgG1, kappa)
chain 1: DIVMTQSPDSLAVSLGERATINCKSSQTVLYSSNNKKYLAWYQQKPGQPPNLLIYWASTRESGVPDRFSGSGSGTDFTLTISSLQAEDVAVYYCQQYYSTPFTFGPGTKVEIKRTVAAPSVFIFPPSDEQLKSGTASVVCLLNNFYPREAKVQWKVDNALQSGNSQESVTEQDSKDSTYSLSSTLTLSKADYEKHKVYACEVTHQGLSSPVTKSFNRGEC
chain 2: EVQLQQSGPGLVKPSQTLSLTCAISGDSVSSNSAAWNWIRQSPSRGLEWLGKTYYRFKWYSDYAVSVKGRITINPDTSKNQFSLQLNSVTPEDTAVFYCTRESTTYDLLAGPFDYWGQGTLVTVSSASTKGPSVFPLAPSSKSTSGGTAALGCLVKDYFPEPVTVSWNSGALTSGVHTFPAVLQSSGLYSLSSVVTVPSSSLGTQTYICNVNHKPSNTKVDKKV[letters of human IgG1 Fc with L235A G237A (EU numbers) left out]GGGGGSGGGGSGGGGSEVQLQQSGPGLVKPSQTLSLTCAISGDSVSSKSAAWNWIRQSPSRGLEWLGRTYYRSKWSTDYAASVKSRITINPDTSKNQLSLQLNSVTPEDTAVYYCARTWVGYVDRWGQGTLVTVSSGGGGSGGGGSGGGGSDIQMTQSPPALSASVGDRVTITCRASQDINDWLAWYQHKPGKAPKLLIYDASSLESGVPLRFSGSGSGTEFTLTISSLQPDDFATYYCQQKYSAPQVTFGQGTRLEIK
notes: also called 抗Vδ1×抗TIGIT
